From patent US20140275511A1, “PURIFICATION OF […]” (priority 2013, published 2014)

How the values were obtained:
[1] = moderate to high pH cation fractions
Source text: First, the fermentation broth is preferably adjusted in pH to 4.0±0.5. Bayer recommends using acetic acid. We have found this useful. Broth which is frozen and later thawed will tend to lose some NikZ potency. […] It is preferable to use fresh broth.
At this point, Bayer and Shaman teach acidifying the cation eluate to pH 4. […] The AEX column preferably is loaded with material at pH about 8.0.

[2] = well stoppered brown bottle, 2-8° C.
Experimental: An alternative method of concentration is by rotary evaporation. It is highly preferable to use a high vacuum, better than 29 inches of mercury. Less than 50 milliTorr is desirable, and particularly 10-20 milliTorr. Bath temperature should be 35° C. for the first 50% volume reduction, then can be raised to 45° C. With experience, these temperatures can be increased a bit. When suitably concentrated, the material can be lyophilized. Drying in a vacuum oven at up to 60° C. for 24 hours should get the moisture to less than 6%. 3 to 4% moisture is preferable. The material can be stored in a well closed vessel for long periods.

C[C@@H]([C@H](N)C(=O)N[C@H](C(=O)O)[C@H]1O[C@@H](n2ccc(=O)[nH]c2=O)[C@H](O)[C@@H]1O)[C@H](O)c1ccc(O)cn1 [Nikkomycin Z]
stability in cation exchange eluate fractions [1]: not stable for long | storage stability of dried material [2]: for years without undue degradation
